The record followed here is the RNAGym collection of RNA variant scans (doi:10.7554/elife.90254).

To fix the notation:
B1: LINE1-full (parent)
chain: UACGUAGGUGGUUUUCCCCUGAUAGUGCUAAGGGGGCCUGGAAGUUUGGACUGGGCAGAGCUCAACACAGCGUGGCAAAGUGGCUGUGGCUAGACUGCCUCUCUGGAUUCCUCGUCACUCAGCAGGGCAUCUCUGAGAGAAAUGCC

The source gives no read counts; variants with many changes may rest on few reads.

This data set covers variants of B1. Kind of data set: self-cleavage, relative activity (ratio to wild type); higher = more cleavage; in vitro, sequencing; the parent is a self-cleaving ribozyme.
UACGUAGGUGGUUUUCCCCUGAUAGAGCUAAGGGGGCCUGGAAGUUUGGACUGGGCAGAGCUCAACACAGCGUGACAAAGCGGCUGUGGCUAGACUGCCUCUCUGGACUCCUCGUCACUCAGCAGGGCAUCUCUGAGAGAAAUGCC [U26A G75A U81C U108C]: the self-cleavage is 0.37. With UACGUAGGUGGUUUUCCCCUGAUAGAGCUAAGGGGGCCUGGAAGUUUGGACUGGGCAGAGCUCAACACAGCGUGGCAAAGUGGCUGUGGCUAGACUGCCUCUCUGGAUUCCUCGUCGCUCAGCAGGGCAUCUCUGAGAGAAAUGCU [U26A A117G C146U], the self-cleavage stood at 1.73. Under UACGUAGGUGGUUUUCCCCUGAUAGAGCUAAGGGGGCCUGGAAGUUUGGACUGGGCAGAGCUCAACACAGCGUGGCAAAGUGGCUGUGGCUAGACUGCCUCUCUGGAUUCCUCGUCGCUCAGGGGGGCAUCUCUGAGAGAAAUGCC [U26A A117G C123G A124G] stands 1.34; under UACGUAGGUGGUUUUCCCCUGAUAGAGCUAAGGGGGCCUGGAAGUUUGGACUGGGCAGAGCUGAACACCGCGUGGCAAAGUGGCUGUGGCUAGACUGCCUCUCUGGAUUCCUCGCCACUCAGCAGGGCAUCUCUGAGAGAAAUGCC [U26A C63G A69C U115C], 0.15. With UACGUAGGUGGUUUUCCCCUGAUAGAGCUAAGGGGGCCUGGAAGUUUGGACCGGGCAGAGCUCAACACAGCGUGGCAAAGUGGCUGUGGCUAGACUGCCUCUCUGGAUUCCUCGUCACUCUGCAGGGCAUCUCUGAGAGAAUUGCC [U26A U52C A121U A142U], the self-cleavage came to 0.63.

On to UACGUAGGUGGUUUUCCCCUGAUAGAGCUAAGGGGGCCUGGAAGUUUGGACAGGGCAGAGCUCAACACAGCGUGGCAAAGUGGCUGUAGCUAGACUGCCUCUCUGGAUUCCUCGUCACUCAGCAGGGCAUCUCUGAGUGAAAUGCC [U26A U52A G88A A138U], for which the self-cleavage was 0.04. Under UACGUAGGUGGUUUUCCCCUGAUAGAGCCAAGGGGGCCUGGGAGUCUGGACUGGGCAGAGCUCAACACAGCGUGGCAAAGUGGCUGUGGCUAGACUGCCUCUCUGGAUUCCUCGUCGCUCAGCAGGGCUUCUCUCAGAGAAAUGCC [U26A U29C A42G U46C A117G A129U G135C] stands 1.53. The figure for UACGUAGGUGGUUUUCCCCUGAUAGAGCUAAGGGGGCCAGGAAGUUUGGACUGGGCAGAGCUCAACACAGCGUGGCAAAGUGGCUGUGGCUAGACUGCCUCUCUGGAUUCCUCGUCGCUCAGCAGGGCAUCACUGAGAGAAAUGCC [U26A U39A A117G U132A] is 0.72. Turning to UACGUAGGUGGUUUUCCCCUGAUAGAGCUAAGGGGGCCUGGAAGUUUGGACUGGGCAGAGCUCAACACAGCAUGGCAAAGUGGCUGUGGCUAGACUGCCUCUCUGGAUUCCUCGUCACUCAGCAGGGCAUCUCCGAGAGAAAUGCC [U26A G72A U134C], the self-cleavage was found to be 1.05. For the variant UACGUAGGUGGUUUUCCCCUGAUAGAGCUAAGGGGGCCUGGAAGUUUGGACUGGACAGAGCUCAACACAGCGAGGCAAAGUGGCUGUGGCUAGACUGCCUCUCUGGAUUCCUCGUCACUCAGCUGGGCAUCUCUGAGAGAAAUGCC [U26A G55A U73A A124U], the self-cleavage turned out to be 0.04. The figure for UACGUAGGUGGUUUUCCCCUGAUAGAGCUAAGGGGGCCUGGAAGUUUGGACUGGGCAGAGCUCAACACAGCGUGGCAAAGUGGCUGUGGCUAGACUGCCUCUCUGGAUUCCUCGUCACUCAGCAGGGCGCCUCUGAGAGGAAUGCC [U26A A129G U130C A140G] is 0.94; for UACGUAGGUGGUUUUCCCCUGAUAGAGCUAAGGGGGCCUGGAAGUUUGGACUGGGCAGAGCCCAACACAGCGUGGCAAAGGGGCUGUGGCUAGACUGCCUCUCUGGAUUCCUCGUCACUCAGCAGGGCAUCUCUGAGAGAAAUGCC [U26A U62C U81G] it is 0.02. UACGUAGGUGGUUUUCCCCUGAUAGAGCUAAGGGGGCCUGGAAGUUUGGACAGGGCAGGGCUCAACACUGCGUAGCAAAGUGGCUGUGACUAGACUGCCUCUCUGGAUUCCUCGUCACUCAGCAGGGCAUCUCUGAGAGAAAUGCC [U26A U52A A59G A69U G74A G89A]: the self-cleavage is 0.02. On to UACGUAGGUGGUUUUCCCCUGAUAGAGCUAAGGGGGCCUGGAAGUUUGGACGGGGCAGAGCUCGUCACAGCGUGGCAAAGUGGCUGUGGCUAGACUGCCUCUCUGGAUUCCUCGUCACUCAGCAGGGCAUCUCUGAGAGAAAUGGC [U26A U52G A64G A65U C145G], for which the self-cleavage is 0. The figure for UACGUAGGUGGUUUUCCCCUGAUAGAGCUAAGGGAGCCUGGAAGAUUGGACUGGGCAGGGCUCAACACAGCGUGGCAAAGUGGCGGCGUCUAGACUGCCUCUCUGGAUUCCUCGUCACUCAGCAGGGCAUCUCUGAGAGAAAUGCC [U26A G35A U45A A59G U85G U87C G89U] is 0.07; for UACGUAGGUGGUUUUCCCCUGAUAGAGCUAAGGGGUCCUGGAAGUUUGGACUGGGCAGAGCUCAACACAGCGAGGCAAAGUGGCUGUGGCUAGAUUGCCUCUCUGGAUUCCUCGUCACUCAGCAGGGCAUCUCUGAGAGAAAUGCC [U26A G36U U73A C95U] it is 0.04.

Regarding UACGUAGGUGGUUUUCCCCUGAUAGAGCUAAGGGGGCCUGGAAGUUAGGACUGGGCAGAGCUCAACACAGCGUGGCAUAGUGGCUGUGGCUAGACUGCCUCUCUGGAUUCCUCGUCACUCAGCAGGGCAUCUCUGAGAGAAAUGCC [U26A U47A A78U], the self-cleavage was 1.25. The figure for UACGUAGGUGGUUUUCCCCUGAUAGAGCUAAGGGGGCCUGGAAGUUUGGACUGGGCAGAGCUCAACACAGCGUGGCAAAGUGGCUGUGGCUAGACUACCUCUCUGGAUUCCUCGUCACUCAGCAGGGCACCUCUGAGAGAAAUGCC [U26A G97A U130C] is 0.06. The figure for UACGUAGGUGGUUUUCCCCUGAUAGAGCUAAGGGGGCCUGGAAGUUUGGACUGGGCAUAGCUCAACACAGCGUGGCAAAGUGGCUGUGGCUAGACUGCCUCUCUGGAUUCCUCGUCACCCAGCAGGGCAUCUCUGAGAGAAAUGCC [U26A G58U U119C] is 0.09; for UACGUAGGUGGUUUUCCCCUGAUAGAGCUAAGGGGGCUUGGAAGUUUGGACUGGGCAGGGCUCAACACAGCGUGGCAAAGUGGCUGUGGCUAGACCGCCUCUCCGGAUUCCUCGACACUCAGCAGGGCAUCUCUGAGAGAAAUGCC [U26A C38U A59G U96C U104C U115A] it is 0.18. Regarding UACGUAGGUGGUUUUCCCCUGAUAGAGCUAAGGGGGCCUAGAAGUUUGGACUGGGCGGAGCUCAACACAGCGUGGCAAAGUGGCUGUGGCUAGACUGCCUCUCUGGAUUCCUCGUCACUCAGCAGGGCAUCUCUGAGAGAAAUGCC [U26A G40A A57G], the self-cleavage came out at 0.35. As to UACGUAGGUGGUUUUCCCCUGAUAGAGCUAAUGGGGCCUGGAAGUUAGGACUGGGCAGAGCUCAACACAGCGUGGCAAAGUGGUUGUGGCUAGACAGCCUCUCUGGAUUCCUCGACAUUCAGCAGGGCUCCUCUGAGAGAAAUGCC [U26A G32U U47A C84U U96A U115A C118U A129U U130C], the self-cleavage amounted to 0.03. Under UACGUAGGUGGUUUUCCCCUGAUAGAGCUAAGGGGGCCAGGAAGUUUGGACUGGGCAGAGCUCAACACAGCGUGGCAAAGUGGCUGUGGCUAGACUGCCUCUCUGGAUUCCUCGUCACUCAGCAGGGCAUCUCUGAGUGAAAUGCC [U26A U39A A138U] stands 1.35; under UACGUAGGUGGUUUUCCCCUGAUAGAGCUAAGGGGGCCUGGAAGUUUGGACUGGGCAGAGCUCAACACAGCGUGGCAAAGUGGCUGUGGCUAGACUGCCUCUCUGGAUUCCUCGUCACUCAGCAGGGCAUCUCUGAGAGAGAUGCU [U26A A141G C146U], 0.86. As to UACGUAGGUGGUUUUCCCCUGAUAGAGCUAAGGGGGCCUGGAAGUUAGGACUGGGCAGAGCUCAACACUGCGUGGCAAAGUGGCUGUGGCUAGACUGCCUCUCCGGAUUCCUCGUCACUCAGCAGGGCAUCUCUGAGAGAAAUGCC [U26A U47A A69U U104C], the self-cleavage was 0. The figure for UACGUAGGUGGUUUUCCCCUGAUAGAGCUAAGGGGGCCAGGAAGUUUGGACUGGGCAGAGCUCAACACAGAGUGGCAAAGUGGCUGUGGCUAGACUGCCUCUCUGGAUUCCUCGUCACUCAGCAGGGCAUCUCUGAGAGAAAUGCC [U26A U39A C71A] is 0.13; for UACGUAGGUGGUUUUCCCCUGAUAGAGCUAAGGGGGCUUGGAAGUUUGGACUGGGCAGAGCUCAACACAGCGUGGCAAAGUGGCUGUGGCUAGACUGCCUCUCUGGAUUCCCCGUCACUCAGCAGGGCACCUCUGAGAGAAAUGCC [U26A C38U U112C U130C] it is 1.27.

In the case of UACGUAGGUGGUUUUCCCCUGAUAGAGCUAAGGGGGCCUGGAAGUUUGGACUGGGCAGAGCUCAACACAGCGUGGCAAAGUGGAUGUGGCUAGACUGCCUCUCUGGAUUCCUCGACACUCAGCAGGGCAUCUCUGAGAGAAACGCC [U26A C84A U115A U143C], the self-cleavage is 0.06. The figure for UACGUAGGUGGUUUUCCCCUGAUAGAGCUAAGGGGGCCUGGAAGUUCGGACUGGGCAGAGCUCAACACAGCGUGGCAAAGUGGCUGUGGCUAGACUGCCUCUCUGGAUUCCUCGUCACUCAGCAGGGCAUCUCUGAGAGAAGUGCC [U26A U47C A142G] is 1.26. The figure for UACGUAGGUGGUUUUCCCCUGAUAGAGCUAAGGGGGCCUGGAAGUUUGGACUGGGCAGAGCCCAUCACAGCGUGGCAAAGUGGCUGUGGCUAGACUGCCUCUCUGGAUUCCUCGUCACUCAGCAGGGCAUCUCUGAGAGAAAUGCC [U26A U62C A65U] is 0.03; for UACGUAGGUGGUUUUCCCCUGAUAGAGCUAAGGGGGCCUGGAAGUUUGGACUGGGCAGAGCUCAACACAGCGCGGCAAAGUGGCUGUGGCUAGGCUGCCUCUCUGGAUUCCUCGUCACUCAGCAGGGCAUCUCUGAGGGAAAUGCC [U26A U73C A94G A138G] it is 0. The figure for UACGUAGGUGGUUUUCCCCUGAUAGAGCUAAGGGGGCCUGGAAGUUUGGACUGGGCAGAGCUCAACACAGCGUGGCAAAGUGGCUGUGGCUAGACUGCCUCUCUGGAUUCCUCGUCACUCAGCAGGGCAUCUCUGAUAGGAAUGCC [U26A G137U A140G] is 1.53. Take UACGUAGGUGGUUUUCCCCUGAUAGAGCCAAGGGGGCCUGGAUGUUUGGACUGGGCAGAGCUCAACACAGCGUGGCAAAGUGGCUGUGGCUAGACUGCCUCUCUGGAUUCCUCGUCACUCAGCAGGGCAUCUCUGAGAGAAAUGCC [U26A U29C A43U]: the self-cleavage came out at 0.92. Under UACGUAGGUGGUUUUCCCCUGAUAGAGCUAAGGGGGCCUGGAAGUUUGGACCGGGCAGAGCUUAACACAGCGUGGCAAAGUGGCUGUGGCUAGACUGCCUCUCUGGAUUCCUCGUCACUCAGCAGGGCAUCUCUGAGAGAAAUGCC [U26A U52C C63U] stands 0.24; under UACGUAGGUGGUUUUCCCCUGAUAGAGCUAAGGGGGCCUGGAAGCUUGGACUGGGCAGAGCUCAACACAGCGUGGCAUAGUGGCUGUGGCUAGACUGCCUCUCUGGAUUCCUCGUCACUCAGCAGGGCAUCUCUGAGAGAAAUGCC [U26A U45C A78U], 1.74; under UACGUAGGUGGUUUUCCCCUGAUAGAGCUAAGGGGGCCUGGAAGUUUGGACUGGGCAGAGCUCAACACAGCGUGGCAAAGUGGCUGUGGCUAGACUGCCUCUCUGGAUUCCUCGUCACUCGGCAGGGCAUCUCUGAGAGAAAUGAC [U26A A121G C145A], 1.05.

Turning to UACGUAGGUGGUUUUCCCCUGAUAGAGCUAAGGGGGCCUGGAAGUCUGGACAGGGCAGAGCUCAACCCAGCGUGGCAAAGUGGCUGUGGCUAGACUGCCUCUCUGGAUUCCUCGUCACUCAGCAGGGCAUCUCUGAGAGAAAUGCC [U26A U46C U52A A67C], the self-cleavage was found to be 0.12.

For UACGUAGGUGGUUUUCCCCUGAUAGAGCUAAGGGGGCCUGGAAGUUUGGACUGGGCAGAGCUCAACACAGCGAGGCUAAGUGGCUGUGGCUAGACUGCCUCUCUGGAUUCCUCGUCACUCAGCAGGGCAUCUCUGAGAGGAAUGCC [U26A U73A A77U A140G], the self-cleavage was found to be 0.86. The figure for UACGUAGGUGGUUUUCCCCUGAUAGAGCUAAGGGGGCCUGGAAGUCUGGACUGGGCAGAGCUCAACACAGCGUGGCAAAGAGGCUGUGGCUAGACUGCCUCUCUGGAUUCCUCGUCACUCUGCAGGGCAUCUCUGAGAGAAAUGCC [U26A U46C U81A A121U] is 1.5.
